First the molecules themselves.
B1: CPEB3 Ribozyme (parent)
chain: UAACAGGGGGCCACAGCAGAAGCGUUCACGUCGCAGCCCCUGUCAGAUUCUGGUGAAUCUGCGAAUUCUGCUGUAUAUCUC

Read counts are not given, so values of variants with three or more changes are uncertain.

Variants of B1 are the subject of the data set. Nature of the data set: self-cleavage, relative activity (ratio to wild type); higher = more cleavage; in vitro, sequencing. A digest of the protocol: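 After error-prone PCR and barcoding, CPEB3 ribozyme mutant libraries were transcribed with T7 RNA polymerase at 37°C for 5 hours, then given 15 min with DNase I before an EDTA stop, and they cleaved during both steps. Reverse transcription with template switching preceded Illumina sequencing. Relative activity divides a variant's cleaved/total read fraction by the unmutated ribozyme's. At least 5 reads were required per variant, and three batches were averaged.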
Take C11U A28G A56G: the self-cleavage turned out to be 0.25.
As to C12G G16A A35U U78C, the self-cleavage was determined as 0.05.
As for C12A A13U U25A U60A G63A, the self-cleavage amounted to 0.04.
On to C12U C23G U26C C29U A45G U51C U78A, for which the self-cleavage is 0.04.
Under C11U A13C C23G U25A U49C U51C stands 0.04; under C11U G24C U43C G55A U60C, 0.06; under C11U A35G U43C A56G, 0.95.
For C12U A15G A28C C37U U74C U78C, the self-cleavage was determined as 0.6.
Regarding C12A A18G U31G C39A U43A U72C, the self-cleavage was 0.07.
As for C12G A13U U25C C40A U41A U67C U69C, the figure is 0.09; as for C12A U25A A57G A75G U78C, 0.1.
For C12U A21U U25C A28U A35U U72C, the self-cleavage was found to be 0.06.
As for C11G U72C U74A, the self-cleavage came to 0.72.
Under C11U A20G A45U U80C stands 0.35; under C12A U54C U60A U72C U80C, 0.54.
As to C12A C17G G33U C40U U80C, the self-cleavage amounted to 0.17.
Turning to C12A U26C U41A U54C, the self-cleavage was 0.24.
In the case of C11U A15G U58C, the self-cleavage came to 0.42.
As to C11U A18G A45C U54C, the self-cleavage turned out to be 0.05.
Regarding C12G G16U A18G U49C A64G U66C, the self-cleavage amounted to 0.05.
With C12G A45G U69A U76C, the self-cleavage is 0.15.
For the variant C11U A57U U60C, the self-cleavage came to 0.16.
Under C11U U60C U67C U74A stands 0.09; under C12G C29G U78C, 0.06.
With C12U C59A U69A U74C, the self-cleavage came to 0.43.
As to C12U A45U A77U, the self-cleavage was found to be 1.01.
In the case of C12U A21G A56G A64G, the self-cleavage was determined as 0.45.
Turning to C11U A64G C79A, the self-cleavage was determined as 0.24.
Turning to C12U A13G U41A U48C, the self-cleavage was found to be 0.13.
Consider C12A U54C U72C U76A, for which the self-cleavage came to 1.21.
Consider C11U A18U U41A, for which the self-cleavage was determined as 0.07.
Under C11U U41C U60A U69A U72A stands 0.11; under C12U A15G U41C, 0.77.
On to C12U A28U U41C, for which the self-cleavage is 1.05.
With C12A A21G U26A U80G, the self-cleavage was determined as 0.54.
Take C12A A45U A57G A65C: the self-cleavage came to 0.
Turning to C11U C40A G46U U48C, the self-cleavage was 0.2.
For the variant C12A C17U A64U, the self-cleavage is 0.24.
On to C11U A45U U49C U76C, for which the self-cleavage is 0.15.
Regarding C12U C14U A21G, the self-cleavage worked out at 0.69.
Regarding C12A A15G U26A A47G U54C, the self-cleavage worked out at 0.53.
As for C11U U26C A28U A65G A77G, the figure is 0.04.
For the variant C11U A21U U26A U49A U54G A65G, the self-cleavage turned out to be 0.1.
For the variant C11U U31G A64U, the self-cleavage came out at 0.09.
For C12U C27U U51C U80C, the self-cleavage is 0.12.
Take C11U C27G U49C C59A U69G: the self-cleavage is 0.05.
For C12U A13C U43A A45C A64G U66C, the self-cleavage is 0.21.
Under C12G C37G U43A A47G U51C stands 0.29.
Consider C11U C12U G24A C34U U43C U69A, for which the self-cleavage came out at 0.04.
Under C12U A28G U48A U49C U60C stands 0.17; under C11U U41C U69C, 0.19; under C11U U31G A45U U80C, 0.15.
In the case of C11U A13U U41C, the self-cleavage was determined as 0.91.
In the case of C12A A21G U25C A28U A45G U48C A64U, the self-cleavage worked out at 0.11.
In the case of C12A A15U U26C U31C U43A, the self-cleavage stood at 0.4.
C12G U54C U60C U72A A75G: the self-cleavage is 0.07.
As to C12U A35U U76C, the self-cleavage stood at 1.16.
C12U A47G U49C A77U: the self-cleavage was 0.59.
Turning to C11U A15G A18U U26C, the self-cleavage was determined as 0.16.
Under C12U A20G A35U A47G U48G U54C stands 0.05.
Under C12G U26A C32G U54A U66C stands 0.05; under C11G U69A U78C, 0.09.
For the variant C12A C23G U60C, the self-cleavage was found to be 0.18.
Turning to C11U A45C U60C G73U, the self-cleavage amounted to 0.2.
Regarding C12A U25A U41A, the self-cleavage is 0.22.
For the variant C12A A15U U72A U78C, the self-cleavage was found to be 0.71.
Take C12A U58G A75G: the self-cleavage came out at 0.33.
As for C11U U60A A64U, the figure is 0.16; as for C11U C12U C38U U43C A57G U80C, 0.07; as for C12G A13G C27U C40U U41A A75G, 0.21.
With C12A U25C A45C C50U, the self-cleavage is 0.14.
For the variant C12G A18U U26C, the self-cleavage was 0.06.
For C12U A28G A64G, the self-cleavage was determined as 0.84.
As for C11U U25C U43C C62U A65G, the figure is 0.04; as for C11U A35G U69C U78C, 0.95.
Consider C12A G22U U48C, for which the self-cleavage worked out at 0.04.
In the case of C12A U48C U72C, the self-cleavage came to 0.67.
Take C11U G22U G55A U78C: the self-cleavage stood at 0.08.
As to C12U A15U U26A C29G U54C A56U U58C, the self-cleavage worked out at 0.07.
Under C12A A20G U25A A45U U54C A77G stands 0.09.
As for C12U A28G U31A U43A A64G, the figure is 0.35; as for C12U A35G U43A A47U U58A A64G, 0.87; as for C12U A20G U54C, 1.38.
As for C12U C32A U43A U66C, the self-cleavage turned out to be 0.06.

These data come from the RNAGym collection of RNA variant scans (doi:10.1093/nar/gkz1192).
